# Results as given in the supplement of paper PMC12217912.
# Some of the results follow. Sequences were assembled here from the parent chain. Values near 0.05 are background.
# B1: TEV protease; numbered along this chain (parent)
# chain: MGESLFKGPRDYNPISSSICHLTNESDGHTTSLYGIGFGPFIITNKHLFRRNNGTLVVQSLHGVFKVKDTTTLQQHLVDGRDMIIIRMPKDFPPFPQKLKFREPQREERICLVTTNFQTKSMSSMVSDTSCTFPSGDGIFWKHWIQTKDGQCGSPLVSTRDGFIVGIHSASNFTNTNNYFTSVPKNFMELLTNQEAQQWVSGWRLNADSVLWGGHKVFMVKPEEPFQPVKEATQL
# Variants of: B1
# Assay: raw area under fraction-flipped curve 0-4 h after induction (AUC4h, not background-subtracted), DNA-recorder readout of cleavage of the substrate (dimensionless); higher = more cleavage of the substrate by the protease variant
# Conditions: temperature: 34 °C; time window: 0-4 h after rhamnose induction
# Procedure: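 In vivo DNA recorder in E. coli TOP10(DE3) ΔrhaA at 34 °C. Each TEVp single-site mutant (parent TEVp 0) is paired with a single-site variant of the 7-mer TEVs (canonical ENLYFQ|S). The substrate sits between flexible linkers in a Bxb1-sfGFP-TEVs-SsrA fusion, so cleavage stabilises Bxb1 and speeds flipping of a recombination array, read by NGS. The value is the raw area under the fraction-flipped curve over 0-4 h after rhamnose induction (AUC4h), with ≥20 reads per time point. It is not background-subtracted; inactive controls average about 0.047.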
# 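Also: Bxb1 expression induced with 0.2% (w/v) L-rhamnose at OD600 near 0.5, cultures sampled hourly, flipped fraction per protease–substrate barcode pair counted by paired-end Illumina sequencing.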
Variant,area with substrate ENAYFQS,area with substrate ENCYFQS,area with substrate ENDYFQS,area with substrate ENEYFQS,area with substrate ENGYFQS,area with substrate ENHYFQS,area with substrate ENIYFQS,area with substrate ENKYFQS,area with substrate ENNYFQS,area with substrate ENQYFQS,area with substrate ENSYFQS,area with substrate ENTYFQS,area with substrate ENVYFQS,area with substrate ENYYFQS,area with substrate ENFYFQS,area with substrate ENMYFQS,area with substrate ENPYFQS,area with substrate ENRYFQS,area with substrate ENWYFQS
MGESLFKGPRDYNPISSLICHLTNESDGHTTSLYGIGFGPFIITNKHLFRRNNGTLVVQSLHGVFKVKDTTTLQQHLVDGRDMIIIRMPKDFPPFPQKLKFREPQREERICLVTTNFQTKSMSSMVSDTSCTFPSGDGIFWKHWIQTKDGQCGSPLVSTRDGFIVGIHSASNFTNTNNYFTSVPKNFMELLTNQEAQQWVSGWRLNADSVLWGGHKVFMVKPEEPFQPVKEATQL [S18L],0.0248,0.063,0.0566,0.061,0.0809,0.0557,0.0948,0.0551,0.0624,0.0537,0.0662,0.0559,0.0707,0.0627,,,,,
MGESLFKGPRDYNPISSSECHLTNESDGHTTSLYGIGFGPFIITNKHLFRRNNGTLVVQSLHGVFKVKDTTTLQQHLVDGRDMIIIRMPKDFPPFPQKLKFREPQREERICLVTTNFQTKSMSSMVSDTSCTFPSGDGIFWKHWIQTKDGQCGSPLVSTRDGFIVGIHSASNFTNTNNYFTSVPKNFMELLTNQEAQQWVSGWRLNADSVLWGGHKVFMVKPEEPFQPVKEATQL [I19E],0.0494,0.0517,0.0498,0.0514,,0.0415,0.074,0.0363,,0.0467,0.051,0.0028,0.055,,0.0387,0.0535,0.0325,0.035,0.0372
MGESLFKGPRDYNPISSSFCHLTNESDGHTTSLYGIGFGPFIITNKHLFRRNNGTLVVQSLHGVFKVKDTTTLQQHLVDGRDMIIIRMPKDFPPFPQKLKFREPQREERICLVTTNFQTKSMSSMVSDTSCTFPSGDGIFWKHWIQTKDGQCGSPLVSTRDGFIVGIHSASNFTNTNNYFTSVPKNFMELLTNQEAQQWVSGWRLNADSVLWGGHKVFMVKPEEPFQPVKEATQL [I19F],0.0573,0.065,0.0601,0.0534,0.0566,0.0677,0.0729,,0.0581,0.0555,0.0626,0.0589,0.0701,0.0492,,0.0667,,0.0695,0.0549
MGESLFKGPRDYNPISSSLCHLTNESDGHTTSLYGIGFGPFIITNKHLFRRNNGTLVVQSLHGVFKVKDTTTLQQHLVDGRDMIIIRMPKDFPPFPQKLKFREPQREERICLVTTNFQTKSMSSMVSDTSCTFPSGDGIFWKHWIQTKDGQCGSPLVSTRDGFIVGIHSASNFTNTNNYFTSVPKNFMELLTNQEAQQWVSGWRLNADSVLWGGHKVFMVKPEEPFQPVKEATQL [I19L],0.0606,0.0724,0.0585,0.0602,,0.059,,0.0649,,0.0609,0.0858,0.0579,0.0804,,,0.0945,0.0728,0.0676,
MGESLFKGPRDYNPISSSIDHLTNESDGHTTSLYGIGFGPFIITNKHLFRRNNGTLVVQSLHGVFKVKDTTTLQQHLVDGRDMIIIRMPKDFPPFPQKLKFREPQREERICLVTTNFQTKSMSSMVSDTSCTFPSGDGIFWKHWIQTKDGQCGSPLVSTRDGFIVGIHSASNFTNTNNYFTSVPKNFMELLTNQEAQQWVSGWRLNADSVLWGGHKVFMVKPEEPFQPVKEATQL [C20D],0.0489,0.0439,0.0453,,0.0406,0.0478,0.0229,0.0753,0.0446,0.0444,0.0482,0.0447,0.0379,0.0393,0.025,0.0495,0.0315,0.0407,0.0038
MGESLFKGPRDYNPISSSIGHLTNESDGHTTSLYGIGFGPFIITNKHLFRRNNGTLVVQSLHGVFKVKDTTTLQQHLVDGRDMIIIRMPKDFPPFPQKLKFREPQREERICLVTTNFQTKSMSSMVSDTSCTFPSGDGIFWKHWIQTKDGQCGSPLVSTRDGFIVGIHSASNFTNTNNYFTSVPKNFMELLTNQEAQQWVSGWRLNADSVLWGGHKVFMVKPEEPFQPVKEATQL [C20G],0.0394,,,,,,0.0776,0.0491,,,0.0485,,,,,,,,
MGESLFKGPRDYNPISSSIHHLTNESDGHTTSLYGIGFGPFIITNKHLFRRNNGTLVVQSLHGVFKVKDTTTLQQHLVDGRDMIIIRMPKDFPPFPQKLKFREPQREERICLVTTNFQTKSMSSMVSDTSCTFPSGDGIFWKHWIQTKDGQCGSPLVSTRDGFIVGIHSASNFTNTNNYFTSVPKNFMELLTNQEAQQWVSGWRLNADSVLWGGHKVFMVKPEEPFQPVKEATQL [C20H],0.0424,0.0486,0.043,,0.0457,0.0663,,0.0466,0.0582,0.0445,0.0438,0.0422,0.0383,0.0465,,0.062,,0.0779,0.0369
MGESLFKGPRDYNPISSSISHLTNESDGHTTSLYGIGFGPFIITNKHLFRRNNGTLVVQSLHGVFKVKDTTTLQQHLVDGRDMIIIRMPKDFPPFPQKLKFREPQREERICLVTTNFQTKSMSSMVSDTSCTFPSGDGIFWKHWIQTKDGQCGSPLVSTRDGFIVGIHSASNFTNTNNYFTSVPKNFMELLTNQEAQQWVSGWRLNADSVLWGGHKVFMVKPEEPFQPVKEATQL [C20S],0.0366,0.0568,0.0686,0.0613,0.0589,0.0619,,0.0652,0.0821,0.0492,0.0551,0.0617,0.0589,0.0346,,,0.0647,0.0429,0.0359
MGESLFKGPRDYNPISSSITHLTNESDGHTTSLYGIGFGPFIITNKHLFRRNNGTLVVQSLHGVFKVKDTTTLQQHLVDGRDMIIIRMPKDFPPFPQKLKFREPQREERICLVTTNFQTKSMSSMVSDTSCTFPSGDGIFWKHWIQTKDGQCGSPLVSTRDGFIVGIHSASNFTNTNNYFTSVPKNFMELLTNQEAQQWVSGWRLNADSVLWGGHKVFMVKPEEPFQPVKEATQL [C20T],0.0677,0.0517,0.0579,0.0552,0.0492,0.0524,0.0866,,0.0596,0.0504,0.0658,0.063,0.0733,0.0681,0.0587,0.0876,0.052,0.0537,0.0434
